Measured values as given in US11000038B2, “Pyridone compounds and agricultural and horticultural fungicides containing the same as active ingredients” (priority 2017, dated 2021).
Where two headings read alike, the source gives them in different places.

Columns and labels:
[1] = test system: cucumber anthracnose fungi (Colletotrichum orbiculare); assay: Test Example H: cucumber anthracnose, spray treatment of cucumber plants; conditions: for Test H control value: cucumber anthracnose, 6 to 10 days after inoculation; for Test H control value class (cucumber anthracnose): 2.5 ml/pot, cucumber Sagami Hanjiro, 6 to 10 days from inoculation
[2] = test system: rice blast fungi (Magnaporthe grisea); format: in vivo; conditions: for Test A control value: rice blast; for Test A control value class (rice blast): control value=100{1-(n/3)}
[3] = test system: tomato late blight fungi (Phytophthora infestans); format: in vivo; conditions: for Test F control value: tomato late blight; for Test F control value class (tomato late blight): control value=100{1-(n/3)}
[4] = spray treatment of tomato plants

Compound | Test H control value ([1]; 250 ppm spray) | Test A control value ([2]; spray treatment) | Test F control value ([3]; spray treatment) | Test H control value class (cucumber anthracnose) ([1]; 250 ppm spray) | Test A control value class (rice blast) ([2]; spray treatment of rice plants) | Test F control value class (tomato late blight) [3, 4] | also measured
CCc1c(-c2c(F)cc(F)cc2F)n(-c2cc(C)ccc2C)cc(C)c1=O [Compound 520] | H (H shows the control value of more than 50%) | H (H shows the control value of more than 50%) | L (L shows the control value of 50% or less) | – | – | – | –
CCc1c(-c2c(F)cc(F)cc2F)n(-c2cc(F)ccc2C)cc(C)c1=O [Compound 522] | H (H shows the control value of more than 50%) | H (H shows the control value of more than 50%) | L (L shows the control value of 50% or less) | – | – | – | –
CCc1c(-c2c(F)cccc2F)n(-c2cccc(F)c2C)cc(Br)c1=O [Compound 550] | H (H shows the control value of more than 50%) | H (H shows the control value of more than 50%) | L (L shows the control value of 50% or less) | – | – | – | –
CCc1c(-c2c(F)cccc2F)n(-c2cc(Cl)ccc2C)cc(Br)c1=O [Compound 501] | L (L shows the control value of 50% or less) | H (H shows the control value of more than 50%) | L (L shows the control value of 50% or less) | – | – | – | –
O=c1c(Br)cn(-c2ccccc2)c(-c2ccc(F)cc2Cl)c1Cl [Compound 567] | H (H shows the control value of more than 50%) | H (H shows the control value of more than 50%) | L (L shows the control value of 50% or less) | – | – | – | –
Cc1ccc(Br)cc1-n1cc(Cl)c(=O)c(Br)c1-c1c(F)cc(F)cc1F [Compound 249] | – | – | – | – | – | – | Test H control value ([1]; 250 ppm spray (2.5 ml/pot)): H (H shows the control value of more than 50%); Test A control value ([2]; spray treatment of rice plants): H (H shows the control value of more than 50%); Test F control value [3, 4]: L (L shows the control value of 50% or less)
CCC(C)Cn1cc(Br)c(=O)c(Br)c1-c1c(F)cc(F)cc1F (stereo not drawn) [Compound 167] | – | – | – | H (H shows the control value of more than 50%) | H (H shows the control value of more than 50%) | L (L shows the control value of 50% or less) | –
Cc1ccc(F)cc1-n1cc(C)c(=O)c(C)c1-c1c(F)cc(F)cc1F [Compound 455] | H (H shows the control value of more than 50%) | H (H shows the control value of more than 50%) | L (L shows the control value of 50% or less) | – | – | – | –
Cc1ccccc1-n1cc(C)c(=O)c(C)c1-c1c(Cl)cncc1Cl [Compound 252] | – | – | – | – | – | – | Test H control value ([1]; 250 ppm spray (2.5 ml/pot)): H (H shows the control value of more than 50%); Test A control value ([2]; spray treatment of rice plants): H (H shows the control value of more than 50%); Test F control value [3, 4]: L (L shows the control value of 50% or less)
Cc1c(-c2ccc(F)cc2F)n(-c2ccccc2)cc(I)c1=O [Compound 593] | L (L shows the control value of 50% or less) | H (H shows the control value of more than 50%) | L (L shows the control value of 50% or less) | – | – | – | –
O=c1c(Br)cn(-c2ccccc2F)c(-c2c(F)cc(F)cc2F)c1Cl [Compound 20] | – | – | – | H (H shows the control value of more than 50%) | H (H shows the control value of more than 50%) | L (L shows the control value of 50% or less) | –
CCc1ccccc1-n1cc(C)c(=O)c(C)c1-c1c(F)cc(F)cc1F [Compound 326] | – | – | – | – | – | – | Test H control value ([1]; 250 ppm spray (2.5 ml/pot)): H (H shows the control value of more than 50%); Test A control value ([2]; spray treatment of rice plants): H (H shows the control value of more than 50%); Test F control value [3, 4]: L (L shows the control value of 50% or less)
O=c1c(Br)cn(Cc2ccccc2)c(-c2c(F)cc(F)cc2F)c1Cl [Compound 56] | – | – | – | L (L shows the control value of 50% or less) | H (H shows the control value of more than 50%) | L (L shows the control value of 50% or less) | –
C#CCOc1ccc(CC)c(-n2cc(C)c(=O)c(C)c2-c2c(F)cccc2F)c1 [Compound 625] | L (L shows the control value of 50% or less) | L (L shows the control value of 50% or less) | H (H shows the control value of more than 50%) | – | – | – | –
O=c1c(Cl)cn(-c2ccccc2)c(-c2c(F)cc(F)cc2F)c1Br [Compound 15] | – | – | – | H (H shows the control value of more than 50%) | H (H shows the control value of more than 50%) | L (L shows the control value of 50% or less) | –
COc1cc(F)c(-c2c(Br)c(=O)c(Br)cn2C(C)C)c(F)c1 [Compound 18] | – | – | – | H (H shows the control value of more than 50%) | H (H shows the control value of more than 50%) | L (L shows the control value of 50% or less) | –

Compound | Test H control value ([1]; 250 ppm spray) | Test A control value ([2]; spray treatment) | Test F control value ([3]; spray treatment) | Test H control value class (cucumber anthracnose) ([1]; 250 ppm spray) | Test A control value class (rice blast) ([2]; spray treatment of rice plants) | Test F control value class (tomato late blight) [3, 4] | also measured
Cc1ccccc1-n1cc(F)c(=O)c(C)c1-c1c(F)cc(F)cc1F [Compound 278] | – | – | – | – | – | – | Test H control value ([1]; 250 ppm spray (2.5 ml/pot)): H (H shows the control value of more than 50%); Test A control value ([2]; spray treatment of rice plants): H (H shows the control value of more than 50%); Test F control value [3, 4]: L (L shows the control value of 50% or less)
O=c1c(Cl)cn(C2CCCCC2)c(-c2c(F)cc(F)cc2F)c1Cl [Compound 26] | – | – | – | L (L shows the control value of 50% or less) | H (H shows the control value of more than 50%) | L (L shows the control value of 50% or less) | –
O=c1c(Br)cn(-c2ccccc2)c(-c2c(F)cc(F)cc2F)c1Cl [Compound 9] | – | – | – | H (H shows the control value of more than 50%) | H (H shows the control value of more than 50%) | L (L shows the control value of 50% or less) | –
Cc1ccc(C)c(-n2cc(Cl)c(=O)c(Br)c2-c2c(F)cc(F)cc2F)c1 [Compound 148] | – | – | – | H (H shows the control value of more than 50%) | H (H shows the control value of more than 50%) | L (L shows the control value of 50% or less) | –
Cc1ccc(-n2cc(Cl)c(=O)c(Cl)c2-c2c(F)cc(F)cc2F)c(C)c1 [Compound 259] | – | – | – | – | – | – | Test H control value ([1]; 250 ppm spray (2.5 ml/pot)): H (H shows the control value of more than 50%); Test A control value ([2]; spray treatment of rice plants): H (H shows the control value of more than 50%); Test F control value [3, 4]: L (L shows the control value of 50% or less)
Cc1cn(-c2ccccc2)c(-c2ccccc2F)c(C)c1=O [Compound 471] | H (H shows the control value of more than 50%) | H (H shows the control value of more than 50%) | L (L shows the control value of 50% or less) | – | – | – | –
Cc1cn(-c2ccccc2)c(-c2c(F)cccc2Cl)c(C)c1=O [Compound 589] | H (H shows the control value of more than 50%) | H (H shows the control value of more than 50%) | L (L shows the control value of 50% or less) | – | – | – | –
O=c1c(Cl)cn(-c2cccnc2Cl)c(-c2c(F)cc(F)cc2F)c1Cl [Compound 35] | – | – | – | H (H shows the control value of more than 50%) | H (H shows the control value of more than 50%) | H (H shows the control value of more than 50%) | –
CC1CCCCC1n1cc(Br)c(=O)c(Cl)c1-c1c(F)cc(F)cc1F (stereo not drawn) [Compound 159] | – | – | – | L (L shows the control value of 50% or less) | L (L shows the control value of 50% or less) | L (L shows the control value of 50% or less) | –
CCc1ccccc1-n1cc(C)c(=O)c(CC)c1-c1c(F)cccc1F [Compound 510] | H (H shows the control value of more than 50%) | H (H shows the control value of more than 50%) | L (L shows the control value of 50% or less) | – | – | – | –
Cc1ccc(Br)cc1-n1cc(Br)c(=O)c(Cl)c1-c1c(F)cc(F)cc1F [Compound 247] | – | – | – | – | – | – | Test H control value ([1]; 250 ppm spray (2.5 ml/pot)): H (H shows the control value of more than 50%); Test A control value ([2]; spray treatment of rice plants): H (H shows the control value of more than 50%); Test F control value [3, 4]: L (L shows the control value of 50% or less)
CCCn1cc(Cl)c(=O)c(Br)c1-c1c(F)cc(F)cc1F [Compound 7] | – | – | – | H (H shows the control value of more than 50%) | H (H shows the control value of more than 50%) | L (L shows the control value of 50% or less) | –
COc1cc(F)c(-c2c(Cl)c(=O)c(Br)cn2-c2cc(OC)ccc2C)c(F)c1 [Compound 279] | – | – | – | – | – | – | Test H control value ([1]; 250 ppm spray (2.5 ml/pot)): H (H shows the control value of more than 50%); Test A control value ([2]; spray treatment of rice plants): H (H shows the control value of more than 50%); Test F control value [3, 4]: H (H shows the control value of more than 50%)
Cc1cn(-c2ccccc2)c(-c2ccccc2Br)c(C)c1=O [Compound 578] | H (H shows the control value of more than 50%) | L (L shows the control value of 50% or less) | L (L shows the control value of 50% or less) | – | – | – | –
Cc1ccc(O)cc1-n1cc(Br)c(=O)c(Cl)c1-c1c(F)cc(F)cc1F [Compound 280, 5-bromo-3-chloro-1-(5-hydroxy-2-methylphenyl)-2-(2,4,6-trifluorophenyl)pyridin-4(1H)-one] | – | – | – | – | – | – | Test H control value ([1]; 250 ppm spray (2.5 ml/pot)): H (H shows the control value of more than 50%); Test A control value ([2]; spray treatment of rice plants): H (H shows the control value of more than 50%); Test F control value [3, 4]: L (L shows the control value of 50% or less)
